Consider six molecules from patent publication US20110033389A1 (published 2011).

Where two headings read alike, the source gives them in different places.

Common to all, as to assay: cell-based or functional assay
For assay [1], the target named is T1, glycoprotein D of Herpes simplex virus, on HSV-1 virus (Herpes simplex virus (HSV-1 virus in …)).
Assay [2] has as its target T1, glycoprotein D of Herpes simplex virus, …. This is another data set of the same source.
The target is the same in assay [3]. The source holds these as a separate data set.
Assay [4] shares this target. This is another data set of the same source.
For assay [5] the target is unchanged. The source holds these as a separate data set.

B1: AC8scFvTAT (scFv)
scFv: [sequence of about 100 residues omitted]GGSSRSSSSGGGGSGGGGQVQLVQSGAEVKKPGSSVKVSCKASGGSFSSYAINWVRQAPGQGLEWMGGLMPIFGTTNYAQKFQDRLTITADVSTSTAYMQLSGLTYEDTAMYYCARVAYMLEPTVTAGGLDVWGQGTTVTVSSASTKGGQAGQHHHHHHGAYPYDVPDYASRGRKKRRQRRR
In the case of B1, in assay [1], the “Plaque Reduction Rate Percentage (Average plaque number per plate) at 0.008 µg/ml; HSV-1 neutralization in solution” value is 0%, the “Plaque Reduction Rate Percentage (Average plaque number per plate) at 0.04 µg/ml; HSV-1 neutralization in solution” value worked out at 22%, the “Plaque Reduction Rate Percentage (Average plaque number per plate) at 0.2 µg/ml; HSV-1 neutralization in solution” value turned out to be 47% and the “Plaque Reduction Rate Percentage (Average plaque number per plate) at 1 µg/ml; HSV-1 neutralization in solution” value came to 99%. The “Plaque Reduction Rate Percentage (Average plaque number per plate) at 5 µg/ml; HSV-1 neutralization in solution” value in assay [1] amounted to 97%. In addition, in assay [2], the “Plaque Reduction Rate Percentage (Average plaque number per plate) at 0.012 µg/ml; HSV-1 neutralization in solution” value came to 0%, the “Plaque Reduction Rate Percentage (Average plaque number per plate) at 0.037 µg/ml; HSV-1 neutralization in solution” value was 10%, the “Plaque Reduction Rate Percentage (Average plaque number per plate) at 0.11 µg/ml; HSV-1 neutralization in solution” value was determined as 57% and the “Plaque Reduction Rate Percentage (Average plaque number per plate) at 0.33 µg/ml; HSV-1 neutralization in solution” value is 98%. In assay [2], the “Plaque Reduction Rate Percentage (Average plaque number per plate) at 1 µg/ml; HSV-1 neutralization in solution” value stood at 99% and the “Plaque Reduction Rate Percentage (Average plaque number per plate) at 3 µg/ml; HSV-1 neutralization in solution” value amounted to 98%. In assay [3], the “Plaque Reduction Rate Percentage (Average plaque number per plate) at 0.2 µg/ml; virus prevention assay (cells pre-treated with antibody, washed, then HSV-1)” value worked out at 0%; the “Plaque Reduction Rate Percentage (Average plaque number per plate) at 0.6 µg/ml; virus prevention assay (cells pre-treated with antibody, washed, then HSV-1)” value turned out to be 0%; the “Plaque Reduction Rate Percentage (Average plaque number per plate) at 1.9 µg/ml; virus prevention assay (cells pre-treated with antibody, washed, then HSV-1)” value came out at 0%; the “Plaque Reduction Rate Percentage (Average plaque number per plate) at 5.6 µg/ml; virus prevention assay (cells pre-treated with antibody, washed, then HSV-1)” value was 19%. In addition, in assay [3], the “Plaque Reduction Rate Percentage (Average plaque number per plate) at 16.7 µg/ml; virus prevention assay (cells pre-treated with antibody, washed, then HSV-1)” value worked out at 74% and the “Plaque Reduction Rate Percentage (Average plaque number per plate) at 50 µg/ml; virus prevention assay (cells pre-treated with antibody, washed, then HSV-1)” value was found to be 98%. Further, in assay [4], the “Plaque Reduction Rate Percentage (Average plaque number per plate) at 0.2 µg/ml; virus prevention assay (cells pre-treated with antibody, washed, then HSV-1)” value was 0%; the “Plaque Reduction Rate Percentage (Average plaque number per plate) at 0.6 µg/ml; virus prevention assay (cells pre-treated with antibody, washed, then HSV-1)” value was found to be 0%; the “Plaque Reduction Rate Percentage (Average plaque number per plate) at 1.9 µg/ml; virus prevention assay (cells pre-treated with antibody, washed, then HSV-1)” value amounted to 20%; the “Plaque Reduction Rate Percentage (Average plaque number per plate) at 5.6 µg/ml; virus prevention assay (cells pre-treated with antibody, washed, then HSV-1)” value was found to be 41%. Moreover, in assay [4], the “Plaque Reduction Rate Percentage (Average plaque number per plate) at 16.7 µg/ml; virus prevention assay (cells pre-treated with antibody, washed, then HSV-1)” value amounted to 91% and the “Plaque Reduction Rate Percentage (Average plaque number per plate) at 50 µg/ml; virus prevention assay (cells pre-treated with antibody, washed, then HSV-1)” value worked out at 97%.

B2: AC8scFvTAT1B (scFv)
scFv: [sequence of about 100 residues omitted]GGSSRSSSSGGGGSGGGGQVQLVQSGAEVKKPGSSVKVSCKASGGSFSSYAINWVRQAPGQGLEWMGGLMPIFGTTNYAQKFQDRLTITADVSTSTAYMQLSGLTYEDTAMYYCARVAYMLEPTVTAGGLDVWGQGTTVTVSSASTKGGQAGQHHHHHHGAYPYDVPDYASGGRKKRKQKKR
With B2, in assay [2], the “Plaque Reduction Rate Percentage (Average plaque number per plate) at 0.012 µg/ml; HSV-1 neutralization in solution” value turned out to be 2%, the “Plaque Reduction Rate Percentage (Average plaque number per plate) at 0.037 µg/ml; HSV-1 neutralization in solution” value stood at 9%, the “Plaque Reduction Rate Percentage (Average plaque number per plate) at 0.11 µg/ml; HSV-1 neutralization in solution” value was determined as 40% and the “Plaque Reduction Rate Percentage (Average plaque number per plate) at 0.33 µg/ml; HSV-1 neutralization in solution” value is 98%. In addition, in assay [2], the “Plaque Reduction Rate Percentage (Average plaque number per plate) at 1 µg/ml; HSV-1 neutralization in solution” value was found to be 100% and the “Plaque Reduction Rate Percentage (Average plaque number per plate) at 3 µg/ml; HSV-1 neutralization in solution” value amounted to 100%. For the same molecule, in assay [3], the “Plaque Reduction Rate Percentage (Average plaque number per plate) at 0.2 µg/ml; virus prevention assay (cells pre-treated with antibody, washed, then HSV-1)” value was 0%; the “Plaque Reduction Rate Percentage (Average plaque number per plate) at 0.6 µg/ml; virus prevention assay (cells pre-treated with antibody, washed, then HSV-1)” value worked out at 0%; the “Plaque Reduction Rate Percentage (Average plaque number per plate) at 1.9 µg/ml; virus prevention assay (cells pre-treated with antibody, washed, then HSV-1)” value turned out to be 0%; the “Plaque Reduction Rate Percentage (Average plaque number per plate) at 5.6 µg/ml; virus prevention assay (cells pre-treated with antibody, washed, then HSV-1)” value was 16%. In assay [3], the “Plaque Reduction Rate Percentage (Average plaque number per plate) at 16.7 µg/ml; virus prevention assay (cells pre-treated with antibody, washed, then HSV-1)” value worked out at 80% and the “Plaque Reduction Rate Percentage (Average plaque number per plate) at 50 µg/ml; virus prevention assay (cells pre-treated with antibody, washed, then HSV-1)” value was determined as 100%.

B3: AC8scFvTAT1C (scFv)
scFv: [sequence of about 100 residues omitted]GGSSRSSSSGGGGSGGGGQVQLVQSGAEVKKPGSSVKVSCKASGGSFSSYAINWVRQAPGQGLEWMGGLMPIFGTTNYAQKFQDRLTITADVSTSTAYMQLSGLTYEDTAMYYCARVAYMLEPTVTAGGLDVWGQGTTVTVSSASTKGGQAGQHHHHHHGAYPYDVPDYASGGKRRKRQRRR
Consider B3, for which, in assay [2], the “Plaque Reduction Rate Percentage (Average plaque number per plate) at 0.012 µg/ml; HSV-1 neutralization in solution” value amounted to 0%, the “Plaque Reduction Rate Percentage (Average plaque number per plate) at 0.037 µg/ml; HSV-1 neutralization in solution” value was 1%, the “Plaque Reduction Rate Percentage (Average plaque number per plate) at 0.11 µg/ml; HSV-1 neutralization in solution” value came to 42% and the “Plaque Reduction Rate Percentage (Average plaque number per plate) at 0.33 µg/ml; HSV-1 neutralization in solution” value stood at 100%. For the same molecule, in assay [2], the “Plaque Reduction Rate Percentage (Average plaque number per plate) at 1 µg/ml; HSV-1 neutralization in solution” value worked out at 100% and the “Plaque Reduction Rate Percentage (Average plaque number per plate) at 3 µg/ml; HSV-1 neutralization in solution” value worked out at 100%. Besides, in assay [3], the “Plaque Reduction Rate Percentage (Average plaque number per plate) at 0.2 µg/ml; virus prevention assay (cells pre-treated with antibody, washed, then HSV-1)” value turned out to be 0%; the “Plaque Reduction Rate Percentage (Average plaque number per plate) at 0.6 µg/ml; virus prevention assay (cells pre-treated with antibody, washed, then HSV-1)” value was 0%; the “Plaque Reduction Rate Percentage (Average plaque number per plate) at 1.9 µg/ml; virus prevention assay (cells pre-treated with antibody, washed, then HSV-1)” value is 0%; the “Plaque Reduction Rate Percentage (Average plaque number per plate) at 5.6 µg/ml; virus prevention assay (cells pre-treated with antibody, washed, then HSV-1)” value was 6%. In assay [3], the “Plaque Reduction Rate Percentage (Average plaque number per plate) at 16.7 µg/ml; virus prevention assay (cells pre-treated with antibody, washed, then HSV-1)” value was found to be 60% and the “Plaque Reduction Rate Percentage (Average plaque number per plate) at 50 µg/ml; virus prevention assay (cells pre-treated with antibody, washed, then HSV-1)” value was 90%.

B4: AC8scFvTAT2C (scFv)
scFv: [sequence of about 100 residues omitted]GGSSRSSSSGGGGSGGGGQVQLVQSGAEVKKPGSSVKVSCKASGGSFSSYAINWVRQAPGQGLEWMGGLMPIFGTTNYAQKFQDRLTITADVSTSTAYMQLSGLTYEDTAMYYCARVAYMLEPTVTAGGLDVWGQGTTVTVSSASTKGGQAGQHHHHHHGAYPYDVPDYASGGRKRRREKRRR
As to B4, in assay [1], the “Plaque Reduction Rate Percentage (Average plaque number per plate) at 0.008 µg/ml; HSV-1 neutralization in solution” value was 1%, the “Plaque Reduction Rate Percentage (Average plaque number per plate) at 0.04 µg/ml; HSV-1 neutralization in solution” value was 1%, the “Plaque Reduction Rate Percentage (Average plaque number per plate) at 0.2 µg/ml; HSV-1 neutralization in solution” value turned out to be 44% and the “Plaque Reduction Rate Percentage (Average plaque number per plate) at 1 µg/ml; HSV-1 neutralization in solution” value was found to be 99%. Also, in assay [1], the “Plaque Reduction Rate Percentage (Average plaque number per plate) at 5 µg/ml; HSV-1 neutralization in solution” value amounted to 99%. Besides, in assay [4], the “Plaque Reduction Rate Percentage (Average plaque number per plate) at 0.2 µg/ml; virus prevention assay (cells pre-treated with antibody, washed, then HSV-1)” value is 0%; the “Plaque Reduction Rate Percentage (Average plaque number per plate) at 0.6 µg/ml; virus prevention assay (cells pre-treated with antibody, washed, then HSV-1)” value worked out at 0%; the “Plaque Reduction Rate Percentage (Average plaque number per plate) at 1.9 µg/ml; virus prevention assay (cells pre-treated with antibody, washed, then HSV-1)” value was found to be 5%; the “Plaque Reduction Rate Percentage (Average plaque number per plate) at 5.6 µg/ml; virus prevention assay (cells pre-treated with antibody, washed, then HSV-1)” value came to 21%. Also, in assay [4], the “Plaque Reduction Rate Percentage (Average plaque number per plate) at 16.7 µg/ml; virus prevention assay (cells pre-treated with antibody, washed, then HSV-1)” value worked out at 36% and the “Plaque Reduction Rate Percentage (Average plaque number per plate) at 50 µg/ml; virus prevention assay (cells pre-treated with antibody, washed, then HSV-1)” value amounted to 76%. In addition, in assay [5], the “ED50; plaque reduction assay, HSV-1 neutralization in solution” value is roughly 0.2 µg/mL and the “ED50 against HSV-1 infection; virus prevention assay (cells pre-treated with antibody, washed, then HSV-1)” value was determined as 25 µg/mL.

B5: AC8scFvTAT1A (scFv)
scFv: [sequence of about 100 residues omitted]GGSSRSSSSGGGGSGGGGQVQLVQSGAEVKKPGSSVKVSCKASGGSFSSYAINWVRQAPGQGLEWMGGLMPIFGTTNYAQKFQDRLTITADVSTSTAYMQLSGLTYEDTAMYYCARVAYMLEPTVTAGGLDVWGQGTTVTVSSASTKGGQAGQHHHHHHGAYPYDVPDYASGGRRKRRQRRRR
B5: in assay [2], the “Plaque Reduction Rate Percentage (Average plaque number per plate) at 0.012 µg/ml; HSV-1 neutralization in solution” value amounted to 2%, the “Plaque Reduction Rate Percentage (Average plaque number per plate) at 0.037 µg/ml; HSV-1 neutralization in solution” value was 14%, the “Plaque Reduction Rate Percentage (Average plaque number per plate) at 0.11 µg/ml; HSV-1 neutralization in solution” value amounted to 57% and the “Plaque Reduction Rate Percentage (Average plaque number per plate) at 0.33 µg/ml; HSV-1 neutralization in solution” value is 96%. In assay [2], the “Plaque Reduction Rate Percentage (Average plaque number per plate) at 1 µg/ml; HSV-1 neutralization in solution” value was determined as 100% and the “Plaque Reduction Rate Percentage (Average plaque number per plate) at 3 µg/ml; HSV-1 neutralization in solution” value amounted to 100%. In addition, in assay [3], the “Plaque Reduction Rate Percentage (Average plaque number per plate) at 0.2 µg/ml; virus prevention assay (cells pre-treated with antibody, washed, then HSV-1)” value stood at 0%; the “Plaque Reduction Rate Percentage (Average plaque number per plate) at 0.6 µg/ml; virus prevention assay (cells pre-treated with antibody, washed, then HSV-1)” value is 0%; the “Plaque Reduction Rate Percentage (Average plaque number per plate) at 1.9 µg/ml; virus prevention assay (cells pre-treated with antibody, washed, then HSV-1)” value came to 4%; the “Plaque Reduction Rate Percentage (Average plaque number per plate) at 5.6 µg/ml; virus prevention assay (cells pre-treated with antibody, washed, then HSV-1)” value is 44%. In assay [3], the “Plaque Reduction Rate Percentage (Average plaque number per plate) at 16.7 µg/ml; virus prevention assay (cells pre-treated with antibody, washed, then HSV-1)” value stood at 89% and the “Plaque Reduction Rate Percentage (Average plaque number per plate) at 50 µg/ml; virus prevention assay (cells pre-treated with antibody, washed, then HSV-1)” value came to 98%.

B6: AC8scFv (scFv)
scFv: [sequence of about 100 residues omitted]GGSSRSSSSGGGGSGGGGQVQLVQSGAEVKKPGSSVKVSCKASGGSFSSYAINWVRQAPGQGLEWMGGLMPIFGTTNYAQKFQDRLTITADVSTSTAYMQLSGLTYEDTAMYYCARVAYMLEPTVTAGGLDVWGQGTTVTVSSASTKGGQAGQHHHHHHGAYPYDVPDYAS
With B6, in assay [5], the “ED50; plaque reduction assay, HSV-1 neutralization in solution” value is roughly 0.2 µg/mL.
